In PubChem BioAssay AID686971 (National Center for Advancing Translational Sciences (NCATS), 2013):
In all, about 360,000 compounds went through this assay and about 7,500 (2.1%) were called active. The inconclusive results got no clear call from the source; some entries with a clear call stand among them for comparison. Calls follow the shape of the dose curve; as a rule, active = well fitted cell-killing curve with a large enough effect; inconclusive = small, poorly fitted or top-dose-only effect, or effect the other way, or another doubt; inactive = no such curve, though single readings can be large or run the other way. No potency is given beside an inconclusive call; the fits are too rough.

Test: qHTS for induction of synthetic lethality in tumor cells producing 2HG: qHTS for the HT-1080-IDH1KD cell line;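 as to activity, negative = toxicity: 0% = DMSO wells and -100% = cell-free medium wells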
Conditions: HT-1080 IDH1 knockdown viability, ATP luminescence, 48 h; activity, negative = toxicity: at 46.1 µM (top of the series) unless noted
How it was run: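 Cytotoxicity counter-line: IDH1KD HT-1080, 48 h, CellTiter-Glo. Curves classed by r2, magnitude and activity.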
Potency is read from the fitted curve at half-maximal effect; tags tell the direction and shape of the fitted curve.

Row | Structure (SMILES) | Potency | activity, negative = toxicity
1 | OC(c1cccc(Cl)c1)c1ncc(-c2ccc(Oc3ccccc3)cc2)[nH]1 (centres undefined) | inconclusive [cytotoxic, single point] | 
2 | CN(C)CCCNc1cc(-c2ccccc2)nc2cc(-c3cccc(F)c3)nn12 | inconclusive [cytotoxic, single point] | 
3 | CC(=O)N1CCN(c2ccccc2NC(=S)NC(=O)c2cc3ccccc3o2)CC1 | inconclusive [cytotoxic, partial curve] | 
4 | CCCCC(=O)NC(c1ccc(Cl)cc1Cl)c1ccc2cccnc2c1O (centres undefined) | inconclusive [cytotoxic, full curve] | 
5 | O=C(Cc1ccccc1)Nc1cccc(-c2nc3ncccc3o2)c1 | inconclusive [cytotoxic, single point] | 
6 | N#Cc1c([N+](=O)[O-])cc([N+](=O)[O-])cc1S(=O)(=O)Cc1ccccc1 | active: 2.91 µM | 
7 | Cc1cc(NC(=O)c2cc(-c3cccnc3)nc3c(C)c(C)ccc23)no1 | inconclusive [cytotoxic, single point] | 
8 | COCCNC(=O)CSc1nc(N)c(NC(=O)c2ccccc2F)c(=O)[nH]1 |  | inactive: 9.68%
9 | Oc1ccc(-c2cnc3c(Nc4cccc(OC(F)(F)C(F)F)c4)nccn23)cc1 | inconclusive [cytotoxic, partial curve] | 
10 | CCNC(=O)C1(C)CCN1CCS(=O)(=O)c1ccc(C)cc1 (centres undefined) | inconclusive [rising, single point] | 
11 | Cc1[nH]c2ccccc2c(=O)c1C(=O)/C=C/c1ccccc1 | inconclusive [cytotoxic, full curve] | 
12 | CC(=O)Nc1cc(-c2ccc(C(=O)NC3CC3)cc2)cn2c(-c3cccc(C(F)(F)F)c3)cnc12 | active: 16.4 µM | 
13 | O=C(NCC1CCCO1)C1CC(=O)N(c2cccc(Cl)c2)C1 (centres undefined) |  | inactive: 16.9%
14 | COc1ccc(NC(=O)CC2C(=O)N(c3ccc(Cl)cc3)C(=S)N2CCc2ccncc2)cc1 (centres undefined) | inconclusive [cytotoxic, single point] | 
15 | CN1CCCC(C#CC(O)(c2ccccc2)c2ccccc2)C1 (centres undefined) |  | inactive: 2.23%
16 | CCCCN(CC)CCCNC(=S)Nc1ccc2nc(N3CCN(C)CC3)cc(C)c2c1 | inconclusive [cytotoxic, single point] | 
17 | CCOC(=O)c1cc(C)nc(Sc2ccc(C)cc2)c1C#N | active: 20.6 µM | 
18 | Cc1ccc(CNCC(O)(c2ccccc2)c2ccccc2)cc1 |  | inactive: -10.9%
19 | CN(/N=C/c1ccc(-c2ccc([N+](=O)[O-])cc2)o1)c1ccccc1 |  | inconclusive: 31.1%
20 | Cc1cc(C)c2nc(/N=C(\N)NC(=O)Nc3ccccc3)nc(C)c2c1 |  | inactive: -16.1%
21 | COc1ccc2[nH]c(=O)c(NC(N)=S)nc2c1 |  | inconclusive: 30.1%
22 | CC1CN(C(=O)c2ccc(COc3ccc(C(C)C)cc3)o2)CC(C)O1 (centres undefined) | inconclusive [cytotoxic, single point] | 

Row | Structure (SMILES) | Potency | activity, negative = toxicity
23 | C[C@@H]1CCC(=O)N(CC[C@H](Sc2ccc(Br)cc2)c2ccccc2)CC1 | inconclusive [cytotoxic, single point] | 
24 | CC(C)CCNC(=S)Nc1ccc([N+](=O)[O-])cc1 | inconclusive [cytotoxic, single point] | 
25 | CN(C)CC(CCC(CN(C)C)C(O)(c1ccccc1)c1ccccc1)C(O)(c1ccccc1)c1ccccc1 (centres undefined) |  | inconclusive: -6.75% [cytotoxic]
26 | Cc1onc(-c2c(Cl)cccc2Cl)c1C(=O)N=C(N)N1CCCC1 |  | inactive: -3.32%
27 | COc1ccc(C(=O)NCCn2cc(SCC(=O)NCc3ccco3)c3ccccc32)cc1 | inconclusive [cytotoxic, single point] | 
28 | CCOC(=O)c1c(-c2ccc(-c3ccccc3)cc2)csc1NC(=O)C1C2CCC(O2)C1C(=O)O (centres undefined) | inconclusive [cytotoxic, single point] | 
29 | O=C(C1CCCCC1)N1C[C@@H](O)[C@H](n2cc(-c3ccc(F)cc3)nn2)C[C@@H]1c1ccccc1 | inconclusive [cytotoxic, single point] | 
30 | Cc1cccc(CN2CCCC(C(=O)Nc3ccc(-c4cscn4)cc3)C2)c1 (centres undefined) | inconclusive [cytotoxic, single point] | 
31 | Cc1cccc(-n2ncc3c2CCCC3NC(=O)C2(C(N)=O)CC2)c1C (centres undefined) | inconclusive [cytotoxic, partial curve] | 
32 | CCN1C(=O)S/C(=C/c2c(OCc3ccc(C(=O)O)cc3)ccc3ccccc23)C1=O | inconclusive [cytotoxic, single point] | 
33 | O=C(COC(=O)c1cccnc1SCC(=O)NCc1ccccc1)NCc1ccccc1 | inconclusive [cytotoxic, single point] | 
34 | O=C(c1cccnc1)N(Cc1ccccc1)c1ccccc1 | inconclusive [cytotoxic, single point] | 
35 | COc1cnc(-c2ccccn2)nc1Sc1c(Cl)cccc1Cl | active: 7.94 µM | 
36 | CC(C)(C)c1nn(-c2ccccc2)c2[nH]c(=O)c(CNCc3ccc4c(c3)OCO4)cc12 |  | inactive: -29.8%
37 | O=C(CN1C(=O)C2CC=CCC2C1=O)N1CCN(c2ccc([N+](=O)[O-])cc2)CC1 (centres undefined) |  | inactive: -3.99%
38 | CCN1CCN(CCNC(=O)c2ccc(/C=C3/Sc4ccccc4N(Cc4cccc(Cl)c4)C3=O)cc2)CC1 | inconclusive [cytotoxic, single point] | 
39 | COc1ccccc1C(CNC(=O)C(CCSC)NC(=O)c1ccccc1Cl)N1CCCC1 (centres undefined) |  | inactive: -3.7%
40 | O=C(Nc1ccc(NC(=O)c2cccs2)cc1)c1ccc2c(c1)OCCO2 |  | inactive: 1.93%
41 | NC(COCc1ccccc1)c1csc(Nc2ccc(C(F)(F)F)cn2)n1 (centres undefined) | inconclusive [cytotoxic, single point] | 
42 | Fc1ccccc1CNc1cc(Cl)cc(Cl)c1 | inconclusive [cytotoxic, single point] | 
43 | CC(C)c1ccc(OCC(=O)NNC(=S)NC(=O)C2CC2)cc1 | inconclusive [cytotoxic, single point] | 
44 | Cc1cc(F)ccc1N1CCC(N2CCN(CCC(C)C)C(CCO)C2)CC1 (centres undefined) | inconclusive [cytotoxic, single point] | 
